In PubChem BioAssay AID624296 (National Center for Advancing Translational Sciences (NCATS), 2012):
Where “and” joins values, the source holds several entries; their conditions need not be identical. Equal values may be shown once. Out of some 350,000 compounds screened, about 9,900 (2.8%) were called active. The inconclusive results got no clear call from the source; some entries with a clear call stand among them for comparison. Calls follow the shape of the dose curve; as a rule, active = well fitted activation curve with a large enough effect; inconclusive = small, poorly fitted or top-dose-only effect; inactive = no such curve, though single readings can be large or run the other way. Potencies beside an inconclusive call are fits to weak or partial responses and may not hold up.

assay: A quantitative high throughput screen for small molecules that induce DNA re-replication in MCF 10a normal breast cells.; also: nearly all actives have a fitted effect of over 50% in size; as to activity, positive = re-replication: % of control where 0% means no effect; settings: MCF 10A DNA re-replication, Hoechst nuclear intensity, 48 h; activity, positive = re-replication: at 46.1 µM (top of the series)
Potency is read from the fitted curve at half-maximal effect; tags tell the direction and shape of the fitted curve.

| SMILES | Potency | activity, positive = re-replication |
| --- | --- | --- |
| CCN(CC(=O)Nc1cc(Cl)ccc1C)C(=O)CCS(=O)(=O)c1ccc(C)cc1 | inconclusive: 23.1 µM [activator, single point] |  |
| CC1CC(C)CN(C(=S)Nc2ccc(SC(F)F)cc2)C1 (stereo not given) | inconclusive: 13 µM [activator, partial curve] |  |
| C(=C\c1ccccn1)/c1ccccn1 |  | inactive: 8.83% |
| O=C(NNc1ccccn1)C(=O)NNS(=O)(=O)c1ccc(F)cc1 | inconclusive: 29.1 µM [activator, single point] |  |
| FC(F)(F)c1cc(CCN2CCNC[C@H]2Cc2cccc3ccccc23)cc(C(F)(F)F)c1 | active: 16.4 µM |  |
| Cc1ccc(NC2=C(Cl)C(=O)OC2OC(=O)c2ccccc2C)cc1 (stereo not given) | inconclusive: 23.1 µM [activator, single point] |  |
| COc1ccc(OC)c(CCNC(=O)c2ccc3c(c2)N(Cc2ccc(F)cc2)CCS3)c1 | active: 13 µM |  |
| CC(C)C(C(=O)N1CCN(Cc2ccccc2)CC1)c1ccccc1 (stereo not given) | inconclusive: 32.6 µM [activator, partial curve, poor fit] |  |
| Cc1nnc(C)n1/N=C/c1cc(Br)cc(Br)c1O | inconclusive: 31.6 µM [activator, single point] |  |
| CN(CC(=O)Nc1cccc(F)c1)CC(=O)Nc1cccc(S(=O)(=O)N2CCCCC2)c1 |  | inactive: 1.89% |
| COc1ccc(C2=Nn3c(nnc3-c3ccc(OC)cc3)SC2)cc1 | active: 0.92 µM |  |
| CC(C)N=C1NN=C(c2cccs2)C(CC(=O)O)S1 (stereo not given) | inconclusive: 29.1 µM [activator, single point] |  |
| COc1ccccc1C(=O)NC(=O)COC(=O)c1ccc([N+](=O)[O-])cc1 |  | inactive: 4.38% |
| COc1ccc(NC(=O)c2ccco2)cc1NC(=O)c1ccco1 |  | inactive: 2.33% |
| CCOc1ccccc1N1CCN(C(=O)C2=CC=CN3CCS(=O)(=O)N=C23)CC1 | inconclusive: 6.51 µM [activator, single point] |  |
| O=C(CSc1nnc2c(n1)[nH]c1ccccc12)Nc1cccc(S(=O)(=O)N2CCOCC2)c1 |  | inactive: 18% |
| COCCCNC(=O)c1ccc2c(c1)ncn2-c1ccc(C)cc1C |  | inactive: 21.3% |
| COc1ccccc1NC(=O)c1cc(S(=O)(=O)NC2CCCC2)ccc1F |  | inactive: 9.36% |
| Cc1ccc(CNCc2cc3c(C(C)(C)C)nn(-c4ccccc4)c3[nH]c2=O)cc1 | inconclusive: 18.4 µM [activator, partial curve, poor fit] |  |
| Cc1cc2ccccc2n1CCNC(=O)c1ccc(S(=O)(=O)N2CCOCC2)cc1 | active: 3.66 µM |  |
| O=c1c2cnn(-c3ccccc3)c2nc(-c2cccs2)n1-c1cccc(Cl)c1 | inconclusive: 9.2 µM [activator, partial curve, poor fit] |  |
| O=C(c1ccccc1)N1CCN(Cc2ccc3c(c2)OCO3)CC1 |  | inactive: 5.87% |
| Cc1ccc(-n2nc3c(c2NC(=O)C(C)C)CS(=O)(=O)C3)c(C)c1 |  | inactive: 0.0782% |
| O=C(Cc1ccc(Cl)cc1)NCCN1CCCC1 |  | inactive: 0.303% |

| SMILES | Potency | activity, positive = re-replication |
| --- | --- | --- |
| O=C(Nc1ccc2[nH]c(=O)[nH]c2c1)c1ccc([N+](=O)[O-])o1 | active: 5.8 µM |  |
| O=Cc1ccccc1Oc1nc(N2CCOCC2)nc(N2CCOCC2)n1 | inconclusive: 7.31 µM [activator, partial curve] |  |
| Cc1cc2nc(SCCOC(=O)Nc3cccc(Cl)c3)nc(C)c2cc1C | inconclusive: 18.4 µM [activator, partial curve] |  |
| O=C(NCC(=O)N(CCN1CCOCC1)C(C(=O)NC1CCCC1)c1cccnc1)c1cccs1 (stereo not given) | inconclusive: 29.1 µM [activator, single point] and inconclusive: 5.8 nM [activator, full curve, poor fit] |  |
| Cc1nn(Cc2c(Cl)cccc2Cl)c(Cl)c1/C=N/NC(=O)c1cccnc1 | active: 20.6 µM |  |
| COc1ccc(-c2nc(NC3=NCCCCC3)sc2C)cc1 | inconclusive: 25.9 µM [activator, single point] |  |
| O=C(/C=C/c1ccccc1)Nc1cc(NC(=O)/C=C/c2ccccc2)cc(C(=O)O)c1 |  | inactive: -9.06% |
| COC(=O)C1=C(C)N(c2ccc(S(N)(=O)=O)cc2)C(=O)C1 |  | inactive: -3.42% |
| COc1ccc2[nH]c(C(=O)N3CCNCC3)cc2c1OC | inconclusive: 29.1 µM [activator, partial curve, poor fit] |  |
| COc1ccccc1/C=C1\SC(=S)N(CCC(=O)NC2=NCCS2)C1=O | inconclusive: 0.517 µM [activator, full curve, poor fit] |  |
| FC(F)(F)c1nnc2c(Sc3ccccc3)nc3ccccc3n12 | inconclusive: 3.26 µM [activator, full curve] |  |
| COc1ccc(CNC(=O)CN2C(=O)c3ccc([N+](=O)[O-])cc3C2=O)cc1 |  | inactive: 0.422% |
| N/C(=N\c1nc(CSc2nc3ccccc3s2)cc(=O)[nH]1)Nc1ccc(F)cc1 | inconclusive: 6.51 µM [activator, partial curve] |  |
| Cc1cccc(/C(N)=N/OC(=O)c2ccc(Br)o2)c1 |  | inactive: 3.05% |
| Cc1ccc(CNc2ncnc3cc(Cl)ccc23)o1 |  | inactive: -15.4% |
| COc1cc(C(=O)NCCC(C)C)ccc1OCc1ccc(Cl)cc1Cl | inconclusive: 9.2 µM [activator, partial curve] |  |
| Clc1ccc(OCCCNCc2ccccc2)c(Br)c1 | inconclusive: 29.1 µM [activator, single point] |  |
| CCCc1nnc(NC(=O)C(=O)NCCN(C)C)s1 | inconclusive: 6.51 µM [activator, single point] |  |
| COc1ccc(/C=N/NC(=O)CN(C)C(=O)OCc2ccccc2)cc1OC |  | inactive: 6.04% |
| N#C/C(=C\c1ccc(-c2ccc(C(=O)O)cc2)o1)c1nc2ccccc2[nH]1 | inconclusive: 29.1 µM [activator, single point] |  |
| COc1ccc(CCC(C)NC(=O)CCc2ccccc2)c(OC)c1 (stereo not given) | inconclusive: 32.6 µM [activator, partial curve, poor fit] |  |
| COc1ccccc1-c1nnc(SCC(=O)NC2CC2)n1C | inconclusive: 29.1 µM [activator, single point] |  |
| Cc1ccc(NC(=O)NC2CC(=O)N(c3ccc4c(c3)OCCO4)C2)c(C)c1 (stereo not given) |  | inactive: -1.84% |
| Cc1cc(C)n(-c2ccc(NC(=O)C3CCN(Cc4cnc(C)s4)CC3)cc2)n1 | inconclusive: 3.26 µM [activator, single point] |  |

| SMILES | Potency | activity, positive = re-replication |
| --- | --- | --- |
| Nc1cccc(-c2nc3ccc(N)cc3s2)c1 | inconclusive: 20.6 µM [activator, single point] |  |
| CCOc1ccc2ccccc2c1C(=O)N1CCN(c2ccccc2)CC1 | active: 13 µM |  |
| CCOC(=O)c1c(C)[nH]c(C)c1C(=O)COC(=O)[C@@H](NC(=O)c1ccccc1OCC)C(C)C | inconclusive: 9.2 µM [activator, partial curve] |  |
| COCCNc1nc(-c2cc(C)c(C)cc2C)cs1 |  | inactive: 3.07% |
| CCOC(=O)c1ccc(NC(=O)c2nc[nH]c2C(=O)N[C@@H](CC(C)C)C(=O)OCc2ccccc2)cc1 | inconclusive: 20.6 µM [activator, single point] |  |
| CC(C)c1nc(SCC(=O)N2CCCC2)c2ccccc2n1 |  | inactive: 6.49% |
| OCCC1CN(Cc2cccs2)CCN1Cc1ccccc1 (stereo not given) |  | inactive: 10.5% |
| CCOC(=O)C1=C(C)N(CCCC(=O)O)C(=O)NC1c1cccc(OC)c1 (stereo not given) | inconclusive: 7.31 µM [activator, partial curve, poor fit] |  |
| N#Cc1nc(COc2ccc(Br)cc2)oc1N1CCN(Cc2ccccc2)CC1 | inconclusive: 5.8 µM [activator, full curve] |  |
| Cc1cccc2cc3c(N)c(C(=O)N4CCCc5ccccc54)sc3nc12 | active: 1.3 µM |  |
| O=C(CN1C(=O)S/C(=C\c2ccccc2)C1=O)NNC(=O)c1ccccc1O | inconclusive: 5.8 µM [activator, partial curve, poor fit] |  |
| CCCCN(C)C(=O)Cn1cnc2sc(C)c(S(=O)(=O)N3CCN(c4ccccc4OC)CC3)c2c1=O |  | inactive: 1.73% |
| CC[C@]12c3[nH]c4cc(-c5ccco5)ccc4c3CCN1C(=O)[C@@H](CC(=O)NCC13CC4CC(CC(C4)C1)C3)C[C@@H]2C(=O)N1CCN(C(=O)c2ccco2)CC1 | inconclusive: 18.4 µM [activator, single point] |  |
| Cc1cc(N)n2nc(-c3ccc(C(C)(C)C)cc3)cc2n1 | inconclusive: 25.1 µM [activator, single point] |  |
| O=C(COC(=O)c1ccccc1OCc1ccc(Cl)cc1)NCC1CCCO1 (stereo not given) | inconclusive: 18.4 µM [activator, single point] |  |
| CC(=O)C1=C(C)OC(N)=C(C#N)C1c1cc2cc(C)c(C)cc2nc1Cl (stereo not given) | inconclusive: 0.461 µM [activator, partial curve, poor fit] |  |
| COC(=O)CSc1nc(N)c2c3c(sc2n1)C(c1ccccc1)SC(c1ccccc1)C3 (stereo not given) | inconclusive: 20.6 µM [activator, single point] |  |
| CCOC(=O)c1n[nH]n(-c2cc(Cl)cc(Cl)c2)c1=O |  | inactive: -4.7% |
| Cc1cc(C)c2nc(C(F)(F)F)nc(NCCCN3CCOCC3)c2c1 | inconclusive: 8.2 µM [activator, partial curve, poor fit] |  |
| COc1ccc(-n2c(SCC(=O)Nc3ccc4c(c3)OCO4)nnc2C(C)N2CCCCC2)cc1 (stereo not given) | inconclusive: 6.51 µM [activator, partial curve, poor fit] |  |
| COc1ccc(/C=C/C(=O)c2ccc(O)cc2)cc1CN1CCOCC1 | inconclusive: 25.9 µM [activator, single point] |  |
| CN1CCN(CCOCCOc2c(Cl)cc(Cl)cc2Cl)CC1 | inconclusive: 25.9 µM [activator, single point] |  |
